# Test results reported in PubChem BioAssay AID1347165 (National Center for Advancing Translational Sciences (NCATS), 2019).
# The whole screen tested about 220,000 compounds, of which about 5,700 (2.6%) were called active. The shares of active, inactive and inconclusive entries below differ from those in the screen. Calls come from the whole dose curve; as a rule, active = well fitted inhibition curve with a large enough effect; inconclusive = small, poorly fitted or top-dose-only effect; inactive = no such curve, though single readings can be large or run the other way. Potencies beside an inconclusive call are fits to weak or partial responses and may not hold up.
# Target: Lysine-specific demethylase 5B (Homo sapiens) (UniProt Q9UGL1)
# UniProt Q9UGL1, sequence (Q9UGL1 whole entry, looked up): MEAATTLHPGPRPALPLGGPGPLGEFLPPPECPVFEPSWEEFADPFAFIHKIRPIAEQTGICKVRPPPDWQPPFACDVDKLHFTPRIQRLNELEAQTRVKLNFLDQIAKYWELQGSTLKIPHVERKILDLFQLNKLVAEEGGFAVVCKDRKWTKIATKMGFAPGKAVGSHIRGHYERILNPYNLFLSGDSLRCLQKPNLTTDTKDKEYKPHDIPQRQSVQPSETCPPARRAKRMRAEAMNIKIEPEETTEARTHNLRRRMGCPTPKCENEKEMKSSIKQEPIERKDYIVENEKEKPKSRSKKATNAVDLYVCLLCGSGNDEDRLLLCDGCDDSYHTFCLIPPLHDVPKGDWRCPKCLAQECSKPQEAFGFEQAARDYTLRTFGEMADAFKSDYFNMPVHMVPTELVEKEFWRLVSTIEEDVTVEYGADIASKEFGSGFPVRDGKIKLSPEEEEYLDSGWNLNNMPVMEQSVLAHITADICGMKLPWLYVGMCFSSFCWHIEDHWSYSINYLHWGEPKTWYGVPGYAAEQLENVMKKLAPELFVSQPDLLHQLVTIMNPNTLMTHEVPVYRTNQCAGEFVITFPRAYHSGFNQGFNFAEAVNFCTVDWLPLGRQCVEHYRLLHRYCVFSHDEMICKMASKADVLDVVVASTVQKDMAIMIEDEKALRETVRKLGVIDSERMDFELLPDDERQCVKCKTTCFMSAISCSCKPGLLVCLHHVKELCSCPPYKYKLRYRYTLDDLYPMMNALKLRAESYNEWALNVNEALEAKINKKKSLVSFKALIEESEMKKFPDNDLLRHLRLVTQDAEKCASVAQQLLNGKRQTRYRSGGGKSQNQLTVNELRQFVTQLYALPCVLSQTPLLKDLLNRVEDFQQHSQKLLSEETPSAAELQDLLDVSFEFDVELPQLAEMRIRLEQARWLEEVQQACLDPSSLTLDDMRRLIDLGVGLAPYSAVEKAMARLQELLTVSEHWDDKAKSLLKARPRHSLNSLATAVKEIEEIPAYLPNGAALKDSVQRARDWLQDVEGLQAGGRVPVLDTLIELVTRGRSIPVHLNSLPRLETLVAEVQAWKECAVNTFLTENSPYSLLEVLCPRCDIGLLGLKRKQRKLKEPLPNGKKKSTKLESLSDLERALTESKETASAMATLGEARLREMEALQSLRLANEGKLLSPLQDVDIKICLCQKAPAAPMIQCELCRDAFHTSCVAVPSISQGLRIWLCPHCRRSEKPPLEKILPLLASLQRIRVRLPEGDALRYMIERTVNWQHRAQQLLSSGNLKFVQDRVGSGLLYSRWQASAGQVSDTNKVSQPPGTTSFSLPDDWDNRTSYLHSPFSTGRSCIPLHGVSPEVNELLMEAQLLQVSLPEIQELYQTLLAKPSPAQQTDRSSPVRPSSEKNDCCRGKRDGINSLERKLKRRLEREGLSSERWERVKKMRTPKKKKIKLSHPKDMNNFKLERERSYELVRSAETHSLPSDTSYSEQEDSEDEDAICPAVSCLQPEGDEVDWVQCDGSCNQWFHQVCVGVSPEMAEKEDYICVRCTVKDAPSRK
# Assay: Primary screen for KDM5B Histone Demethylases FDH-coupled qHTS; note: nearly all actives have a fitted effect of over 70% in size; for activity change, negative = inhibition: 0% is about no effect
# Conditions: FDH-coupled NADH fluorescence (FDH is formaldehyde dehydrogenase); activity change, negative = inhibition: at 57.7 µM (top of the series) unless noted
# How it was run: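 qHTS format, multiple compound concentrations. Buffer 50 mM HEPES pH 7.5/0.01% Tween-20; 200 nM KDM5BΔAP final; 10 min compound preincubation; substrate-mix levels 12.5 µM peptide, 25 µM α-KG, 0.25 mM NAD⁺; 30 min RT; ΔRFU.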
# Potency is the fitted concentration of half-maximal effect; tags give direction and shape of the fitted curve.
SMILES,Potency,"activity change, negative = inhibition"
Cc1nn(-c2ccccc2[N+](=O)[O-])c(C)c1[C@@H]1C=C[C@@H](NS(=O)(=O)c2ccccc2)C1,"inconclusive: 31.6 µM [inhibitor, single point]",
CCC(CC)NC(=O)Cn1nc(C)c2ccccc2c1=O,,inactive: -5.52%
CCSc1nnc(-c2nn(C)c3c2CN(S(=O)(=O)c2ccc(OC)cc2)CC3)n1C,,inactive: 0.945%
CC(C)c1noc(-c2cccn3c(CNC(=O)c4ccccc4Cl)nnc23)n1,active: 10 µM,
COc1ccc(-c2nc(C3CC(=O)N(c4ccc(F)c(Cl)c4)C3)no2)c(C)c1 (stereo not given),"inconclusive: 25.1 µM [inhibitor, single point]",
O=C(Nc1cccc(S(=O)(=O)N2CCCCC2)c1)c1ccc(OCc2cn3ccccc3n2)cc1,,inactive: -22.7%
CSc1cc(C(=O)O)ccn1,"inconclusive: 35.5 µM [inhibitor, partial curve, poor fit]",
COc1ccccc1-c1[nH]nc2ncc(-c3cccc(CO)c3)nc12,active: 39.8 µM,
O=C(NCc1ccco1)C1CC(c2ccccc2)CN(C(=O)c2ccccc2F)C1 (stereo not given),"inconclusive: 31.6 µM [inhibitor, partial curve, poor fit]",
COc1cccc(CNc2ccc3c(c2)ncn3C)c1OC,"inconclusive: 50.1 µM [inhibitor, single point]",
COc1ccc(C2CCCN2Cc2cc(=O)oc3cc(C)ccc23)cc1 (stereo not given),,inactive: -6.01%
O=S1(=O)c2c(cccc2N2CCSCC2)Oc2ccccc2CN1Cc1cn(Cc2ccccc2C(F)(F)F)nn1,"inconclusive: 20 µM [inhibitor, partial curve, poor fit]",
CCOC(=O)C1=C(CN2CCN(Cc3ccccc3)CC2)NC(=O)NC1c1ccccc1 (stereo not given),,inactive: 5.64%
Cn1nnnc1C1CCCN(C(=O)NC2CCCCC2)C1 (stereo not given),,inactive: 16.2%
O=C(CN1CCc2sccc2C1c1cccs1)Nc1ccc(F)cc1 (stereo not given),"inconclusive: 15.8 µM [inhibitor, partial curve, poor fit]",
O=C(NC1CCCN(c2cc(-c3ccc(F)cc3)[nH]n2)C1)c1ccc(F)c(F)c1 (stereo not given),"inconclusive: 8.91 µM [inhibitor, partial curve, poor fit]",
CN1C(=O)CCC2(CNC(=O)c3nccn3C)CCC=C12 (stereo not given),"inconclusive: 15.8 µM [inhibitor, partial curve, poor fit]",
COc1ccc(NC(=O)c2nnn3c2CN(Cc2cccc(Cl)c2)C(=O)CC3)c(C)c1,,inactive: 13.8% [at 86.2 µM]
Cc1cccc(-c2cc(Nc3cccc(C(=O)N(C)Cc4ccccc4)c3)ncn2)c1,"inconclusive: 28.2 µM [inhibitor, partial curve, poor fit]",
Cc1ccc(/C=N/NC(=O)c2ccc3ccccc3c2)s1,"inconclusive: 25.1 µM [inhibitor, single point]",

SMILES,Potency,"activity change, negative = inhibition"
COc1cccc(CNC(=O)c2ccc(Cn3ccn4nc5c(c4c3=O)CCCC5)cc2)c1,"inconclusive: 35.5 µM [inhibitor, single point]",
COc1cc2c(cc1OC)C(C[C@H]1CN(S(=O)(=O)c3ccc(C#N)cc3)CC[C@H]1CC(=O)O)=NCC2,active: 28.2 µM,
O=C(NCc1ccc(F)cc1)C1CCCN(c2ccc3nnc(C(F)(F)F)n3n2)C1 (stereo not given),,inactive: -2.36%
CN(CC(=O)N(C1CCCC1)C1CCS(=O)(=O)C1)c1ccc2ccccc2c1 (stereo not given),"inconclusive: 25.1 µM [inhibitor, partial curve, poor fit]",
Cc1ccc(-n2c(=O)c3sccc3n(Cc3cc(=O)n4ccccc4n3)c2=O)cc1,"inconclusive: 2 µM [inhibitor, full curve, poor fit]",
COc1ccc(CNC(=O)Cn2c(=O)c(CNc3ccc(C)cc3)cc3cc4c(cc32)OCCO4)cc1,"inconclusive: 10 µM [inhibitor, partial curve, poor fit]",
COc1ccc(CC(=O)N2CC[C@@H](CC(=O)O)[C@@H](CCN3C[C@@H]4C[C@H](C3)c3cccc(=O)n3C4)C2)cc1,"inconclusive: 14.1 µM [inhibitor, partial curve, poor fit]",
CCN1c2cc(C)ccc2-n2cccc2C12CCN(C(=O)Nc1cccc(OC)c1)CC2,"inconclusive: 15.8 µM [inhibitor, single point]",
COc1ccccc1-c1nc(C(=O)NCc2cccnc2)n2ccccc12,active: 89.1 µM,
COc1ccc2cc(C(=O)N3CCC4(CC3)CC(c3nc(C)no3)N(C)C4)[nH]c2c1 (stereo not given),"inconclusive: 31.6 µM [inhibitor, partial curve, poor fit]",
COc1cccc(-c2cc3c(=O)n(CC(O)c4ccccc4)ccn3n2)c1 (stereo not given),active: 28.2 µM,
CCOc1ccc2cc(C(=O)N3CCC(N4CCCCC4)CC3)[nH]c2c1,,inactive: -3.29%
COC(=O)c1c(-c2cccs2)csc1NC(=O)c1cc(OC)cc(OC)c1,"inconclusive: 31.6 µM [inhibitor, partial curve, poor fit]",
C=CCn1c(CN2C[C@@H]3C(C(=O)N(C)C)[C@@H]3C2)nc2ccccc21 (stereo not given in full),"inconclusive: 25.1 µM [inhibitor, single point]",
Cc1cccc(NC(=O)Cc2nc(-c3cc(C)n(-c4cc(C)on4)c3C)cs2)c1,"inconclusive: 28.2 µM [inhibitor, single point]",
O=C(NC1CCCc2c1[nH]c1ccccc21)c1cn(C2CC2)c(=O)c2ccccc12 (stereo not given),"inconclusive: 28.2 µM [inhibitor, partial curve, poor fit]",
CS(=O)(=O)N1C[C@H]2CCN(C(=O)c3ccc4cc[nH]c4c3)C[C@H]21,"inconclusive: 15.8 µM [inhibitor, partial curve, poor fit]",
COCCNC(=O)Cc1ccc(N(Cc2ccc(F)cc2)C(=O)c2ccco2)cc1,"inconclusive: 35.5 µM [inhibitor, partial curve, poor fit]",
O=C(N[C@@H]1CCN(Cc2ccc(-c3ccn[nH]3)o2)C[C@H]1O)c1cnccn1,"inconclusive: 11.2 µM [inhibitor, partial curve, poor fit]",
CC1CCC(NC(=O)C2(C)Cc3ccccc3C(=O)N2Cc2ccccc2Cl)CC1 (stereo not given),"inconclusive: 31.6 µM [inhibitor, partial curve, poor fit]",
